In paper PMC12136788:
The list shows a part of the results.

B1: chr12:100341478:100341579:+|3pUTR|ENSG00000136021|unk|FALSE|unique (ssRNA)
RNA: GGGAGUUCUACAGUCCGACGAUCCUAUUCUCCUAUUGCUAAAUGUGUGAUAUAUAGAGAGGAUGUAUAAAAGGAAAUGGAAAUAGACUAUGUACUUGUCUGGUUUUUGUUUGUUUUUAUUUUGGAAUGCUUAUAAGCCUCCUUCAACAGAGGAUUGAGCAUCA
B2: chr8:42175261:42175472:-|3pUTR|ENSG00000104368|msi1|FALSE|unique (ssRNA)
RNA: GGGAGUUCUACAGUCCGACGAUCGUAUUCCUUUUGUGUACAGUGUGUAAAGUGUAAAUCCUUUUUCUUUAUAAACUUUAGAGUAGCAUGAGAGAAUUGUAUCAUUUGAACAACUAGGCUUCAGCAUAUUUAUAGCAAUCCAUGCAACAGAGGAUUGAGCAUCA
B3: chr19:14119889:14120036:-|3pUTR|ENSG00000105011|msi1|total|mutant (ssRNA)
RNA: GGGAGUUCUACAGUCCGACGAUCAGCAGACCCACUCCAGCUUUCUGGUGUCACAGGCGGGAAUGUCCGUCCGCCGGCCGACUCCGAUCCCAUUUCUGUCCUGCUCCCAGGAAGAUUCUCCGGUCCUCUUCAAUCCAGCAGCCCCAACAGAGGAUUGAGCAUCA
B4: chr11:72192224:72192325:+|CDS|ENSG00000110195|unk|FALSE|unique (ssRNA)
RNA: GGGAGUUCUACAGUCCGACGAUCAGACAUGGCUCAGCGGAUGACAACACAGCUGCUGCUCCUUCUAGUGUGGGUGGCUGUAGUAGGGGAGGCUCAGACAAGGAUUGCAUGGGCCAGGACUGAGCUUCUCAAUGUCUGCAUGAACAACAGAGGAUUGAGCAUCA
B5: chr14:75048437:75048538:-|CDS|ENSG00000119684|unk|FALSE|unique (ssRNA)
RNA: GGGAGUUCUACAGUCCGACGAUCUCAGAAGCGUGUGACUUCCGAUGAGAGGAGCAAUUUCCAGGAAGCAUGUAAUAAUAUUUUAGAUUCCUAUGAGAUGUUUAAUUUGCAGUCAAAAGCUGUGAAAAGAAAAACUACUGCAGACAACAGAGGAUUGAGCAUCA
B6: chr10:73479331:73479449:-|CDS|ENSG00000107758|unk|FALSE|unique (ssRNA)
RNA: GGGAGUUCUACAGUCCGACGAUCGUUGAUGUUCUGAAGAACCACUUGGUGAAAGAAGGUCGAGUAGAUGAAGAAAUUGCGCUUAGAAUUAUCAAUGAGGGUGCUGCCAUCCUUCGGAGAGAGAAAACCAUGAUAGAAGUAGAACAACAGAGGAUUGAGCAUCA

molecular target: MSI1 full-length (mouse, UniProt Q61474 1-362); assay: nsRBNS (natural sequence RNA bind-n-seq); RBNS binding buffer (assumed for nsRBNS): 25 mM Tris pH 7.5, 150 mM KCl, 3 mM MgCl2, 0.01% Triton X-100, 500 ug/ml BSA, 20 U/ml SUPERase-In, 4 C; UNK is unkempt and MSI1 is Musashi-1; names of the RNAs are library labels; protein concentration not given here; high values mean tight binding
UniProt Q61474, sequence (Q61474 whole entry): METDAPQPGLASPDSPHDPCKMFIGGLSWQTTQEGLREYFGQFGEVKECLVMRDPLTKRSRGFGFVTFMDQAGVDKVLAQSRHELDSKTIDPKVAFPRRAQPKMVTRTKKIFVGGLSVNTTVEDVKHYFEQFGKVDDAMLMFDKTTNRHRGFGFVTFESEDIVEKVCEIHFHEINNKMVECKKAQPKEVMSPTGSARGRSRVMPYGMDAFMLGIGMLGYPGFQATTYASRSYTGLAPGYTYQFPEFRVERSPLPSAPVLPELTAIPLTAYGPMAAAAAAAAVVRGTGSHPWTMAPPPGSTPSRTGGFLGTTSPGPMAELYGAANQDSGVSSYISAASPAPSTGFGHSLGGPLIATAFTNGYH

Binder	binding signal [enrichment R]
B1	0.287
B2	33.5
B3	0.641
B4	0.534
B5	1.39
B6	3.66
